Each structure is given as a SMILES string. The whole screen tested about 50,000 compounds, of which about 800 (1.6%) showed an effect of 50% or more. The list shows a part of the results.

The experiment addresses Bcl-2-like protein 10 (Homo sapiens) (UniProt Q9HD36). The experiment is described as follows: Phenotype converters, Bcl-B/TR3 peptide binding displacement, primary biochemical FP (AID 1240).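 Note: 0% = Bcl-B with tracer peptide and DMSO and 100% = tracer peptide lacking Bcl-B.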 The note with it: GST-Bcl-B / FITC-TR3 peptide fluorescence polarization; stronger effect = higher value; compound at 3.75 mg/L. In general terms: Polarisation of emitted light reports the rotation of a fluorescent probe.
Chain of UniProt Q9HD36 (Q9HD36 whole entry, looked up): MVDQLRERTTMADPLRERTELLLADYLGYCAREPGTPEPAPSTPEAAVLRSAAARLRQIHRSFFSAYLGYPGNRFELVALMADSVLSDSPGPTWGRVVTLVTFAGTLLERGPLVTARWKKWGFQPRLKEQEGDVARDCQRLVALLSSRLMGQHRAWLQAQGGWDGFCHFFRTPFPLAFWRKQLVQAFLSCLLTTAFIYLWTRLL
As to `O=C(Nc1ccccc1F)c1ccco1`, the displacement was -4.4%.
As for `COc1ccc(N2C(=O)CC(Sc3ncccc3C(=O)O)C2=O)cc1` (stereo not given), the displacement stood at 3%.
As for `COc1ccc(C2C3C(=O)N(c4ccccc4Cl)C(=O)C3ON2c2ccccc2)cc1` (stereo not given), the displacement turned out to be 4.2%.
For `COc1ccccc1CN1CCN(Cc2ccc([N+](=O)[O-])cc2)CC1` the value was -9.5%; for `Cc1cnn(-c2cc(Oc3ccccc3)ncn2)c1`, -12.5%; for `COc1cc(OC)cc(C(=O)N2CCN(C3CCCCC3)CC2)c1`, -2.2%.
In the case of `O=[N+]([O-])c1ccc2oc(-c3ccccc3)nc2c1`, the displacement was found to be 5%.
In the case of `COc1ccc(CSc2nnc3c(n2)[nH]c2ccccc23)cc1`, the displacement worked out at 0.4%.
With `COc1ccc(N(CC(=O)Nc2ccccc2Br)S(=O)(=O)c2ccc(C)cc2)c(OC)c1`, the displacement was found to be 9.9%.
Consider `COc1ccc(/C=C2\SC(=O)N(CCC(=O)N3CCN(C)CC3)C2=O)cc1`, for which the displacement is -15.3%.
As to `CCN1C(=O)/C(=C\c2cccc(OCCOc3cccc(OC)c3)c2)SC1=S`, the displacement was 3.4%.
Next, `Clc1cccc(CSc2nnc(-c3ccc(Cl)cc3Cl)o2)c1`: 8.8%; `O=C(c1cc2n(n1)C(C(F)(F)F)CC(c1ccccc1)N2)N1CCCc2ccccc21` (stereo not given): 1%; `COc1ccc(C2NC(c3ccc(OC)c(OC)c3)C(C)C(=O)C2C)cc1OC` (stereo not given): -4%.
In the case of `COc1ccc(NC(=O)COc2ccc3ccccc3c2)c([N+](=O)[O-])c1`, the displacement is 6.1%.
For `Cc1c(NS(=O)(=O)c2ccccc2)cccc1-c1nc2ncccc2o1` the value was -0.4%; for `CC(=O)C1=C(O)C(=O)N(c2nc3ccccc3s2)C1c1cccc(F)c1` (stereo not given), -3.9%; for `O=C(Nc1nc(-c2ccc(F)cc2)cs1)c1ccc(S(=O)(=O)N2CCCCCC2)cc1`, 129%.
For the molecule `Cc1ccccc1-n1c(O)c(C=NCc2ccccc2F)c(=O)[nH]c1=O`, the displacement was determined as 1%.
As to `Cc1cc(NC(=O)c2ccc(-c3ccc(Cl)cc3)o2)ccc1NC(=O)c1ccco1`, the displacement came out at 18.6%.
On to `O=C1CCCC2=C1C(c1ccc([N+](=O)[O-])cc1)Nc1ccc(C(=O)c3ccccc3)cc1N2` (stereo not given), for which the displacement was 4.6%.
For the molecule `CCCN(CCC)c1ccc(/C=N/NC(=O)C(O)c2ccccc2)cc1` (stereo not given), the displacement came to 12.4%.
For `O=C1NC(=S)N(c2ccccc2)C(=O)/C1=C/c1ccc(Br)cc1` the value was 9.6%; for `O=S(=O)(Nc1cccc2ccccc12)c1cc(Cl)ccc1Cl`, 9.5%.
With `COc1ccc(O)c(C(=O)CC(=O)c2ccccc2)c1`, the displacement is 8.8%.
Turning to `COc1ccc(-n2c(SC)nc(O)c(Cc3ccccc3)c2=O)cc1`, the displacement is -1.5%.
Next, `O=C1CCCCC1Oc1ccc2c(-c3ccccc3)cc(=O)oc2c1` (stereo not given): -9.6%.
Next, `O=C(COc1ccc(Br)cc1)Nc1ccccc1-c1ccccc1`: 5.9%; `O=C1C=CC(=NS(=O)(=O)c2ccccc2)c2ccccc21`: 21.6%.
`COc1ccc(N(CC(=O)Nc2cccc(C)c2)S(=O)(=O)c2ccc(C)cc2)c(OC)c1`: the displacement was determined as 3.6%.
